# Measured values: PubChem BioAssay (NCI)
#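 Values below derive from 48-hour exposures of cells grown in 96-well plates, with endpoints linearly interpolated between the two concentrations bracketing the appropriate inhibition level. Here, GI50 denotes the concentration required for 50% inhibition of growth. Definition used: TGI = concentration required for complete inhibition of growth.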
# Tested on: NCI-H322M lung
# Assay: DTP human tumour cell line panel, 48 h
SMILES,TGI,GI50
CCOC(=O)/C=C(\C)c1ccc(OC)cc1,> 100 µM,–
COc1ccc(CCNC(=O)Cc2cc(OC)c(OC)cc2CO)cc1OC,> 100 µM,–
COc1ccc(N=C(Nc2ccc(OC)cc2)C(=Nc2ccc(OC)cc2)Nc2ccc(OC)cc2)cc1,> 100 µM,–
CC1C(=O)C(C)C(c2ccccc2)N(N=O)C1c1ccccc1 (stereo not given),> 816 µM,–
CCCCOC(=O)C(O)Cc1ccoc1 (stereo not given),> 100 µM,–
ClCc1c(Cl)c(Cl)c(Cl)c(CCl)c1Cl,3.66 µM,1.74 µM
CC/C=C\C/C=C\C/C=C\CCCCCCCC(=O)OCC,> 100 µM,–
Cc1ccc2c(n1)C(=O)c1ccccc1C2=O,64.9 µM,–
CCC12CCCC(=O)N1C(CO)C(c1ccccc1)O2 (stereo not given),> 100 µM,–
COc1nc2nccc-2c2occn12,> 100 µM,–
COc1ccc(-c2cc(N3CCN(c4ccccc4)CC3)c(C#N)c(=O)o2)cc1,> 100 µM,–
CN(C)C(=S)N=Nc1c(O)[nH]c2ccccc12,23.5 µM,0.726 µM
O=c1[nH]nc(Cc2ccccc2)n1Nc1ccccc1,> 100 µM,–
Cc1cccc(NC(=S)Nc2ccccc2Cl)n1,> 100 µM,–
Oc1ccc(CCCCCCc2ccc(O)cc2)cc1,27.5 µM,13.7 µM
N#Cc1ccc(OCc2nc3cc(C(F)(F)F)ccc3nc2-c2ccccc2)cc1,> 100 µM,–
CC1(C)Oc2ccc3c(=O)cc(-c4ccc(F)cc4)oc3c2C1C(=O)O (stereo not given),> 100 µM,–
Nc1cc(N)c(N)cc1N,22.1 µM,9.39 µM
CCCCCCCCCc1cc(=O)c2ccc(O)cc2o1,> 100 µM,–
NNC(=O)CCC(=O)NC1C2CC3CC(C2)CC1C3 (stereo not given),> 100 µM,–
COc1cc(COC(=O)N2CCC2C(=O)O)c([N+](=O)[O-])cc1OC (stereo not given),> 100 µM,–
CN(C)CCCN1CCc2c([nH]c3ccccc23)C1c1cccnc1 (stereo not given),> 100 µM,–
N#CC1(C#N)NC(c2ccsc2)C(C#N)(C#N)NC1c1ccsc1 (stereo not given),> 100 µM,–
Clc1nc(Cl)c2c(ncn2C/C=C\Cn2cnc3c(Cl)nc(Cl)nc32)n1,13.6 µM,3.8 µM
Cc1c(NC(=S)Nc2ccc(Cl)cc2)c(=O)n(-c2ccccc2)n1C,> 100 µM,–
CCC(C)C(=O)c1c(O)c(C/C=C(\C)CCC=C(C)C)c(O)c2c(C(O)CC)cc(=O)oc12 (stereo not given),11.6 µM,–
O=C1CCCCc2cccc(O)c21,> 100 µM,–

SMILES,TGI,GI50
N/C(=N/n1c(=S)[nH]c2ccccc2c1=O)Nn1c(=S)[nH]c2ccccc2c1=O,> 100 µM,–
CC1OC2CC(=O)OC2C2=C1C(=O)c1c(O)c3c(c(O)c1C2=O)C1CC(O)C3(O)C(C)O1 (stereo not given),2.46 µM,0.329 µM
COc1ccccc1N1CCN(Cn2c(=O)oc3cccnc32)CC1,> 100 µM,–
COc1ccc(C(C#N)NNc2nc(C)cc(=O)[nH]2)cc1OC (stereo not given),> 100 µM,–
CCc1cc(O)c(Cl)c(C)c1Cl,37.5 µM,–
C[Si](C)(OCCS(=O)(=O)O)C1S(=O)(=O)OCCOS1(=O)=O,> 100 µM,–
C=CC[C@H](C)CCC(=O)N1[C@H]2CC3CC[C@@]2(CS1(=O)=O)C3(C)C,> 100 µM,–
Cc1cc2c3ccccc3n(C)c2c2c1C(=O)C=CC2=O,53.8 µM,–
CN(C)CCOc1ccc2c(c1)C/C(=C/c1ncc([N+](=O)[O-])n1C)C2=O,11.1 µM,–
CNC(=O)c1[nH]cnc1/N=N/N(C)N,> 100 µM,–
CC(C)(C)c1ccc(S(=O)(=O)N[C@H]2CC[C@H]3[C@@H]4CCc5cc(OS(=O)(=O)O)ccc5[C@H]4CC[C@]23C)cc1,16.9 µM,4.68 µM
CC[n+]1c(/C=C/c2ccc(N(CCCl)CCCl)cc2)ccc2cc(NC(=O)/C=C/c3ccccc3)ccc21,4.29 µM,–
Cc1nnc2n1-c1ccccc1C(=S)N1CSCC21 (stereo not given),> 100 µM,–
CC12Cc3cc4c(cc3C1(c1ccc([N+](=O)[O-])cc1)OCCO2)OCO4 (stereo not given),> 100 µM,–
Clc1ccc(C2NN=C3c4ccccc4OCC32)cc1 (stereo not given),> 100 µM,–
O=[N+]([O-])c1cn[n+]([O-])c2ccccc12,27.8 µM,–
Cc1cccc(C(C)C)c1NC(=O)C(=O)CC(=O)c1c(C)n([O-])c2ccccc2[n+]1=O,95.7 µM,–
CC1S(=O)(=O)OCCOS1(=O)=O,> 100 µM,–
O=C1CC[C@@H](S(=O)(=O)c2ccccc2)[C@@H](/C=C/c2ccccc2)O1,> 100 µM,–
O=C(CN1CCN(c2ccccc2)CC1)N1CCc2c([nH]c3ccccc23)C1c1cccnc1 (stereo not given),> 100 µM,–
CN=S(=O)(c1ccccc1)c1ccccc1,> 100 µM,–
N#Cc1c(NC(=S)NC(=O)c2ccccc2)nc2c(c1-c1ccccc1)CCCC2,> 100 µM,–
COC(=O)c1cc(C#Cc2cc(OC)ccc2OC)ccc1OC,> 100 µM,–
CN(C)c1ccc(N=Nc2ccccn2)cc1,> 100 µM,–
Cc1cccc(NC(=S)N=Nc2c(O)[nH]c3ccccc23)c1,> 100 µM,–
C=CC[C@H]1[C@H](O[Si](C)(C)C(C)(C)C)C=CC(=O)[C@@H]1CC(=O)N(Cc1ccccc1)Cc1ccccc1,> 100 µM,–
